Assay results taken from PubChem BioAssay AID504466 (National Center for Advancing Translational Sciences (NCATS), 2011).
In all, about 330,000 compounds went through this assay and about 4,200 (1.3%) were called active. The inconclusive results got no clear call from the source; some entries with a clear call stand among them for comparison. The call rests on the fitted dose curve; in most records, active means well fitted activation curve with a large enough effect; inconclusive means small, poorly fitted or top-dose-only effect; inactive means no such curve, though single readings can be large or run the other way. Potencies beside an inconclusive call are fits to weak or partial responses and may not hold up.

Experiment: qHTS screen for small molecules that induce genotoxicity in human embryonic kidney (HEK293T) cells expressing luciferase-tagged ELG1; further: nearly all actives have a fitted effect of over 60% in size; on activity change, positive = activation: % of control where 0% means no effect
Settings: HEK293T ELG1-luciferase reporter, luminescence, 16 h; series mostly up to 46 µM; activity change, positive = activation: at the top concentration
Procedure, shortened: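 DMSO vehicle served as control against compound-treated ELG1-luciferase HEK293T cells; exposure lasted 16 hr at 37 °C and 5% CO2, followed by ONE-Glo luminescence detection after 30 min.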
Potency means the concentration at half of the fitted maximal effect; tags describe the fitted curve by direction and shape.

| SMILES | Potency | activity change, positive = activation |
| --- | --- | --- |
| C/C(=N\Nc1ccc(Cl)cc1)c1ccccn1 | active: 20.6 µM | – |
| CN(C(=O)COC(=O)c1nc(Cl)c(Cl)c(Cl)c1Cl)C1CCS(=O)(=O)C1 (configuration not stated) | inconclusive: 6.51 µM [activator, partial curve, poor fit] | – |
| O=C(/C=C\Nc1cccc(F)c1)c1ccc2c(c1)OCO2 | active: 0.146 µM | – |
| CC(=O)Nc1ccc2nc(-c3ccccn3)[nH]c2c1 | inconclusive: 5.8 µM [activator, partial curve] | – |
| CCc1ccc(N(C(=O)c2ccoc2C)C(C(=O)NC2CCCC2)c2ccc(OC)cc2)cc1 (configuration not stated) | – | inactive: 0.0466% |
| O=C(CSc1nc(-c2ccc(F)cc2)cc(C(F)(F)F)n1)Nc1ccc2c(c1)OCO2 | inconclusive: 29.1 µM [activator, single point] | – |
| COCCn1c(SCC(=O)NC2CCCC2)nnc1-c1ccco1 | – | inactive: -2.22% |
| Cc1ccccc1/C=N/NC(=O)c1sccc1C | active: 18.4 µM | – |
| CSCCC(NC(=O)C1CCC(C)CC1)C(=O)NCCN1CCC(C)CC1 (configuration not stated) | – | inactive: -17.8% |
| O=C(Nc1ccccc1)c1ccc(-c2ccc(Br)cc2)o1 | inconclusive: 25.9 µM [activator, partial curve, poor fit] | – |
| CCOC(=O)c1ccc(NC(=O)C2(c3ccc(OC)cc3)CCCC2)cc1 | inconclusive: 18.4 µM [activator, single point] | – |
| Cc1ccnc(NC(=O)CCNC(=O)c2ccccc2Cl)c1 | inconclusive: 20.6 µM [activator, partial curve] | – |
| C/C(=N\NC(=O)c1ccc(Cl)cc1)c1cccs1 | active: 2.31 µM | – |
| O=C(Nc1nc2ccccc2[nH]1)c1ccc(Cl)cc1 | inconclusive: 0.092 µM [activator, full curve, poor fit] | – |
| O=C(Nc1cccc(C(=O)O)c1)/C(=C\c1ccccc1)NC(=O)c1ccccc1 | – | inactive: -1.55% |
| CC(C)C(=O)Nc1cccc(-c2nc3ncccc3o2)c1 | – | inactive: 4.59% |
| Cc1nn(Cc2ccc(C(=O)NC(C)(C)C)o2)c(C)c1Br | – | inactive: -8.02% |
| Cc1ccc(-n2ncc3c2CCCC3NC(=O)CCCN2CCCCC2=O)cc1C (configuration not stated) | – | inactive: -3.47% |
| O=C(NCC(=O)N(c1cccc(F)c1)C(C(=O)NC1CCCC1)c1cccnc1)c1ccco1 (configuration not stated) | – | inactive: 0.587% |
| CCOc1ccccc1OCCn1nnc2ccccc21 | inconclusive: 29.1 µM [activator, partial curve, poor fit] | – |
| Cc1ccc(S(=O)(=O)NCC(=O)N/N=C/c2ccccc2O)cc1 | inconclusive: 29.1 µM [activator, single point] | – |
| CCOc1ccc(S(=O)(=O)Nc2cccc(-c3ccc(N4CCCCCC4)nn3)c2)cc1 | inconclusive: 16.4 µM [activator, partial curve, poor fit] | – |
| Cc1ccc2c(COC(=O)c3ccccc3OC(F)F)cc(=O)oc2c1 | inconclusive: 6.51 µM [activator, partial curve] | – |
| O=C(Nc1ncccc1O)c1ccc2c(c1)OCO2 | inconclusive: 20.6 µM [activator, single point] | – |

| SMILES | Potency | activity change, positive = activation |
| --- | --- | --- |
| Oc1ccc(/C=C/c2ccc3cccc(O)c3n2)cc1Br | active: 18.3 µM | – |
| Cc1ccc(-n2c(C)cc(/C=C3\SC(=O)NC3=O)c2C)cc1 | inconclusive: 4.61 µM [activator, partial curve] | – |
| CCN(CC)CCN1C(=O)C(=O)/C(=C(/O)c2cnn(-c3ccccc3)c2C)C1c1ccc(C)o1 (configuration not stated) | inconclusive: 23.1 µM [activator, partial curve, poor fit] | – |
| S=c1nc(-c2cccc(Br)c2)[nH][nH]1 | inconclusive: 20.6 µM [activator, partial curve, poor fit] | – |
| O=C1NC(c2ccccc2)=N/C1=C/c1ccco1 | inconclusive: 20.6 µM [activator, partial curve] | – |
| O=C(Nc1ccc(OC(F)(F)F)cc1)NC1CCC(Oc2ccc(C(=O)O)cc2)CC1 (configuration not stated) | – | inactive: 5.12% |
| CC(=O)c1sc(NC(=O)c2ccc(F)c(F)c2)nc1C | active: 16.4 µM | – |
| Cc1occc1C(=O)NNC(=S)NC(=O)COc1ccc(Cl)cc1Cl | inconclusive: 23.1 µM [activator, partial curve] | – |
| COc1ccc(C(=O)Nc2sc(C)c(C)c2CN2CC(C)OC(C)C2)cc1 (configuration not stated) | inconclusive: 32.6 µM [activator, partial curve, poor fit] | – |
| C=C1c2ccccc2NC(=S)N1Cc1ccc2c(c1)OCO2 | inconclusive: 10.3 µM [activator, partial curve, poor fit] | – |
| CCOc1ccccc1NC(=O)c1ccc2[nH]c(C)c(C)c2c1 | inconclusive: 23.1 µM [activator, single point] | – |
| Oc1ccccc1NCC(O)Cn1ccc2ccccc21 (configuration not stated) | inconclusive: 5.17 µM [activator, single point] | – |
| C(=N\Nc1nn2cnnc2c2ccccc12)/c1ccco1 | – | inactive: 3.82% |
| Cn1c(=O)n(C)c2cc(/C=C3/SC(=O)N(CC(=O)N4CCOCC4)C3=O)ccc21 | inconclusive: 32.6 µM [activator, partial curve, poor fit] | – |
| CN(C)c1ccc(NC(=O)Cn2cc3c(n2)CCCC3)cc1 | inconclusive: 29.1 µM [activator, single point] | – |
| COc1ccc(NC(=O)c2ccc(Oc3ncccn3)cc2)cc1 | inconclusive: 23.1 µM [activator, partial curve, poor fit] | – |
| Cc1ccc2c(Cl)c(C(=O)NC3CC3)sc2c1 | inconclusive: 5.8 µM [activator, partial curve] | – |
| COC(=O)c1cn(NC(=O)Cc2cccc(OC)c2)c(=O)c2ccccc12 | – | inactive: -0.492% |
| O=C(COC(=O)c1ccc(F)cc1F)NC(=O)Nc1ccc2c(c1)OCCO2 | – | inactive: 10.2% |
| CC(C)COC(=O)/C(C#N)=C/c1c[nH]c2ccccc12 | inconclusive: 13 µM [activator, partial curve, poor fit] | – |
| COc1nc(N)nc(NC23CC4CC(CC(C4)C2)C3)n1 | inconclusive: 13 µM [activator, partial curve, poor fit] | – |
| COc1ccc(NS(=O)(=O)c2cc(Br)cc3c2N(C(C)=O)CC3)cc1 | – | inactive: -4.19% |
| COc1ccc(-c2csc3nc(C)n(-n4cccc4)c(=O)c23)cc1OC | – | inactive: 5.43% |
